Source: article PMC5892938
This is one part of the list. At the low end of the ranking the order means little.

target: GST-SBP-SLBP (stem-loop binding protein) (UniProt Q14493); assay: targeted RNA Bind-n-Seq; conditions: RBNS binding buffer: 25 mM Tris pH 7.5, 150 mM KCl, 3 mM MgCl2, 0.1% Tween, 0.5 mg/mL BSA, 1 mM DTT; 27 nM protein, 750 pM RNA pool; temperature not stated; high values mean tight binding;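 also: DESeq read counts versus GST-SBP nonspecific binding control pulldown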

**Q.** Which binding signal (log2 fold change) does the source give for “GGUCACGUCUCAAUCAACUCUACUUCCAGGGAAAGCCCUGGCUUUCUCAACAGCUCGCAGUCAAG” here?
**A.** Its binding signal (log2 fold change) is 0.134.

**Q.** For “GGUCACGUCUCAAUCAACUCAUAAGAGGGGGGGAAAACCCCUUUACCCUCAUUCUCAACAGCUCGCAGUCAAG”, which binding signal (log2 fold change) is on record?
**A.** The binding signal (log2 fold change) was -0.0262.

**Q.** With “GGUCACGUCUCAAUCAACUCAUCCUCCAGGGAAAUCCCUGGCAUACUCAACAGCUCGCAGUCAAG” as the sequence, how does the binding signal (log2 fold change) read?
**A.** The binding signal (log2 fold change) was -0.114.

**Q.** For “GGUCACGUCUCAAUCAACUCAUUUGCAGGAGUUUCCUCCUGGUAUUUCAACAGCUCGCAGUCAAG”, which binding signal (log2 fold change) is on record?
**A.** Its binding signal (log2 fold change) is -0.0338.

**Q.** “GGUCACGUCUCAAUCAACUCAGAAGAGGGGGGGAAAACCCCUUUACCCUCCAAAUCAACAGCUCGCAGUCAAG” was tested. Which binding signal (log2 fold change) did it give?
**A.** Its binding signal (log2 fold change) is 0.431.

**Q.** Which binding signal (log2 fold change) does the source give for “GGUCACGUCUCAAUCAACUCAACUCCCAGGGAAACCCCUGGCUAUUUCAACAGCUCGCAGUCAAG” here?
**A.** Its binding signal (log2 fold change) is -0.244.

**Q.** How did the binding signal (log2 fold change) turn out when “GGUCACGUCUCAAUCAACUCCAUAGAGGGGGGGAAAACCCCUUUACCCUCCAAAUCAACAGCUCGCAGUCAAG” was run?
**A.** The binding signal (log2 fold change) was -0.662.

**Q.** How did the binding signal (log2 fold change) turn out when “GGUCACGUCUCAAUCAACUCUUCCUCAGGAGUUUUCUCCUGUAUUUUCAACAGCUCGCAGUCAAG” was run?
**A.** The binding signal (log2 fold change) was 0.124.

**Q.** “GGUCACGUCUCAAUCAACUCAUUCUCAGGAGUUUCCUCCUGCUAUCUCAACAGCUCGCAGUCAAG” was tested. Which binding signal (log2 fold change) did it give?
**A.** The binding signal (log2 fold change) was 0.0249.

**Q.** How did the binding signal (log2 fold change) turn out when “GGUCACGUCUCAAUCAACUCAACUCCCAGGGAAACCCCUGGUUUUCUCAACAGCUCGCAGUCAAG” was run?
**A.** Its binding signal (log2 fold change) is -0.0139.

**Q.** Which binding signal (log2 fold change) does the source give for “GGUCACGUCUCAAUCAACUCAUUCCCCAGGGAAAUCCCUGGCAUUCUCAACAGCUCGCAGUCAAG” here?
**A.** Its binding signal (log2 fold change) is 0.11.

**Q.** For “GGUCACGUCUCAAUCAACUCUAUUCCCAGGGAAAGCCCUGGUUUUUUCAACAGCUCGCAGUCAAG”, which binding signal (log2 fold change) is on record?
**A.** Its binding signal (log2 fold change) is -0.301.

**Q.** For “GGUCACGUCUCAAUCAACUCUCUCGAGGGGGGGAAAACCCCUUUACCCUCUCAAUCAACAGCUCGCAGUCAAG”, which binding signal (log2 fold change) is on record?
**A.** The binding signal (log2 fold change) was -0.078.

**Q.** For “GGUCACGUCUCAAUCAACUCAUGUCCAGGAGUUUACUCCUGCAAAUUCAACAGCUCGCAGUCAAG”, which binding signal (log2 fold change) is on record?
**A.** Its binding signal (log2 fold change) is -0.228.

**Q.** Which binding signal (log2 fold change) does the source give for “GGUCACGUCUCAAUCAACUCAUCCUCCAGGGAAAACCCUGGUAUACUCAACAGCUCGCAGUCAAG” here?
**A.** Its binding signal (log2 fold change) is -0.172.

**Q.** Which binding signal (log2 fold change) does the source give for “GGUCACGUCUCAAUCAACUCUACUUCAGGAGUUUUCUCCUGCUAUCUCAACAGCUCGCAGUCAAG” here?
**A.** Its binding signal (log2 fold change) is 0.155.

**Q.** With “GGUCACGUCUCAAUCAACUCUUCCCCAGGAGUUUUCUCCUGUAAAUUCAACAGCUCGCAGUCAAG” as the sequence, how does the binding signal (log2 fold change) read?
**A.** The binding signal (log2 fold change) was -0.00206.

**Q.** Which binding signal (log2 fold change) does the source give for “GGUCACGUCUCAAUCAACUCUAUUUCCAGGGAAAUCCCUGGUUAACUCAACAGCUCGCAGUCAAG” here?
**A.** The binding signal (log2 fold change) was -0.184.

**Q.** For “GGUCACGUCUCAAUCAACUCAUUUUCCAGGGAAAUCCCUGGCUAAUUCAACAGCUCGCAGUCAAG”, which binding signal (log2 fold change) is on record?
**A.** The binding signal (log2 fold change) was -0.0278.

**Q.** How did the binding signal (log2 fold change) turn out when “GGUCACGUCUCAAUCAACUCAUUUCCCAGGGAAAUCCCUGGUUAUCUCAACAGCUCGCAGUCAAG” was run?
**A.** The binding signal (log2 fold change) was -0.175.

**Q.** Which binding signal (log2 fold change) does the source give for “GGUCACGUCUCAAUCAACUCAGGUCCAGGAGUUUACUCCUGCAAAUUCAACAGCUCGCAGUCAAG” here?
**A.** The binding signal (log2 fold change) was 0.356.

**Q.** Which binding signal (log2 fold change) does the source give for “GGUCACGUCUCAAUCAACUCUUUUCCCAGGGAAAACCCUGGCUAUUUCAACAGCUCGCAGUCAAG” here?
**A.** Its binding signal (log2 fold change) is -0.126.

**Q.** Which binding signal (log2 fold change) does the source give for “GGUCACGUCUCAAUCAACUCAAACGAGGGGGGGAAAACCCCUUUACCCUCUCCAUCAACAGCUCGCAGUCAAG” here?
**A.** The binding signal (log2 fold change) was 0.0119.

**Q.** For “GGUCACGUCUCAAUCAACUCAUUAGAGGGGGGGAAAACCCCUUUGCCCUCCAACUCAACAGCUCGCAGUCAAG”, which binding signal (log2 fold change) is on record?
**A.** The binding signal (log2 fold change) was 0.222.

**Q.** For “GGUCACGUCUCAAUCAACUCUCCCGAGGGGGGGAAAACCCCUUUACCCUCACCUUCAACAGCUCGCAGUCAAG”, which binding signal (log2 fold change) is on record?
**A.** The binding signal (log2 fold change) was -0.0133.

**Q.** How did the binding signal (log2 fold change) turn out when “GGUCACGUCUCAAUCAACUCGUUUUCAGGAGUUUCCUCCUGCUAUUUCAACAGCUCGCAGUCAAG” was run?
**A.** Its binding signal (log2 fold change) is -0.0573.

**Q.** Which binding signal (log2 fold change) does the source give for “GGUCACGUCUCAAUCAACUCCCUAGAGGGGGGGAAAACCCCUUUACCCUCCCAAUCAACAGCUCGCAGUCAAG” here?
**A.** The binding signal (log2 fold change) was 0.166.

**Q.** Which binding signal (log2 fold change) does the source give for “GGUCACGUCUCAAUCAACUCAUCCCCCAGGGAAACCCCUGGUUAACUCAACAGCUCGCAGUCAAG” here?
**A.** The binding signal (log2 fold change) was -0.0616.

**Q.** With “GGUCACGUCUCAAUCAACUCUUUUCCCAGGGAAACCCCUGGUAUUCUCAACAGCUCGCAGUCAAG” as the sequence, how does the binding signal (log2 fold change) read?
**A.** Its binding signal (log2 fold change) is -0.0682.

**Q.** For “GGUCACGUCUCAAUCAACUCAUUUCCAGGAGUUUACUCCUGUUUUCUCAACAGCUCGCAGUCAAG”, which binding signal (log2 fold change) is on record?
**A.** The binding signal (log2 fold change) was 0.134.

**Q.** For “GGUCACGUCUCAAUCAACUCAUUCCCCAGGGAAACCCCUGGUAUUUUCAACAGCUCGCAGUCAAG”, which binding signal (log2 fold change) is on record?
**A.** The binding signal (log2 fold change) was 0.0141.

**Q.** For “GGUCACGUCUCAAUCAACUCUUCUUCCAGGGAAAUCCCUGGUUAUCUCAACAGCUCGCAGUCAAG”, which binding signal (log2 fold change) is on record?
**A.** The binding signal (log2 fold change) was 0.165.

**Q.** How did the binding signal (log2 fold change) turn out when “GGUCACGUCUCAAUCAACUCCCUAGAGGGGGGGAAAACCCCUUUGCCCUCAAAAUCAACAGCUCGCAGUCAAG” was run?
**A.** The binding signal (log2 fold change) was 0.0264.

**Q.** With “GGUCACGUCUCAAUCAACUCAGUCCCAGGAGUUUCCUCCUGUUUAUUCAACAGCUCGCAGUCAAG” as the sequence, how does the binding signal (log2 fold change) read?
**A.** Its binding signal (log2 fold change) is -0.117.

**Q.** For “GGUCACGUCUCAAUCAACUCAAUAGAGGGGGGGAAAACCCCUUUGCCCUCAAAUUCAACAGCUCGCAGUCAAG”, which binding signal (log2 fold change) is on record?
**A.** The binding signal (log2 fold change) was -0.0968.

**Q.** Which binding signal (log2 fold change) does the source give for “GGUCACGUCUCAAUCAACUCUAUUCCCAGGGAAACCCCUGGUAUUUUCAACAGCUCGCAGUCAAG” here?
**A.** Its binding signal (log2 fold change) is -0.0783.

**Q.** Which binding signal (log2 fold change) does the source give for “GGUCACGUCUCAAUCAACUCAUCUCCAGGAGUUUCCUCCUGCUAUCUCAACAGCUCGCAGUCAAG” here?
**A.** The binding signal (log2 fold change) was 0.00875.
